According to PubChem BioAssay AID488969 (Vanderbilt High Throughput Screening Facility, 2010):
Whole data set: some 110,000 compounds, median “z-score” near -0.1, cut for the highest 2% near 2. Some of the results follow. Active and inactive are the calls of the source.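 Rule for the calls: active = z-score in the third read window above 3 or below -3; inactive = the rest.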

Molecular target: Metabotropic glutamate receptor 8 (Rattus norvegicus) (UniProt P70579)
Test: mGluR8 Gi/Go-coupled signaling modulation – cell-based, rat, thallium flux, HTS, primary screen (AID 488969)
Conditions: HEK293 rat mGluR8, GIRK (G protein-gated inwardly rectifying potassium channel) thallium flux, FluoZin2; at 10 µM; stronger effect = higher value; submaximal glutamate (EC20) added with thallium

Sequence of UniProt P70579 (P70579 whole entry, looked up): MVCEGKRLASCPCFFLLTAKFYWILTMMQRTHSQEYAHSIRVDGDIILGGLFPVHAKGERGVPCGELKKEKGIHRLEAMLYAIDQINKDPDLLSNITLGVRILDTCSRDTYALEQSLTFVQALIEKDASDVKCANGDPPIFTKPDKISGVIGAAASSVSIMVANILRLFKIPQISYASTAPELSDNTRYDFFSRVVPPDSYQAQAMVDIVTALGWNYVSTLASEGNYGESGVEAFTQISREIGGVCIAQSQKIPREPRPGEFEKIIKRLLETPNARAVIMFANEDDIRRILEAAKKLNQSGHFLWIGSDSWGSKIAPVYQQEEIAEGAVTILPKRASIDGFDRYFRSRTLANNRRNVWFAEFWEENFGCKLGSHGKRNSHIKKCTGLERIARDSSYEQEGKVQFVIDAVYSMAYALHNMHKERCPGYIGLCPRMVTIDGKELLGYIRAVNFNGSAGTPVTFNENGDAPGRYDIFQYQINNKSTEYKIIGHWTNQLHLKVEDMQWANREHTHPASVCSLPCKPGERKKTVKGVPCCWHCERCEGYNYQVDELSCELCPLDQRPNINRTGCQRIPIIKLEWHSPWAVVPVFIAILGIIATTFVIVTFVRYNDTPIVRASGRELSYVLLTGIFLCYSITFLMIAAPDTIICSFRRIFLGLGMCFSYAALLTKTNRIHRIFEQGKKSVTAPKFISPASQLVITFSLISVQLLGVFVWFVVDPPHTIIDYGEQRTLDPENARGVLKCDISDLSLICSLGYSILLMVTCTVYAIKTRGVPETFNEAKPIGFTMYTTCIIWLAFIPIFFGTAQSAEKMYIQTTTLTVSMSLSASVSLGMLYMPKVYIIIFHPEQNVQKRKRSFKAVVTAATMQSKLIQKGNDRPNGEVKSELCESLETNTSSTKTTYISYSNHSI

| SMILES | z-score |
| --- | --- |
| O=C(Nc1c(-c2cccs2)nc2ccccn12)c1ccc2ccccc2c1 | 0.00499 |
| CCN(CC)C(=O)C(C)OC(=O)c1ccc(O)cc1 (stereo not drawn) | 0.46 |
| CCOC(=O)c1ccc(N2Cc3ccccc3C2=NC(=O)c2cccs2)cc1 | -0.139 |
| COc1ccc([N+](=O)[O-])cc1NC(=O)C(C)OC(=O)c1ccccc1C(=O)c1ccc(Cl)cc1 (stereo not drawn) | 0.0662 |
| Cc1nn(C)cc1CNC(=O)c1cccc(Br)c1 | -0.121 |
| CCCCNC(=O)OCC(CC)NC(=O)OCC(C)C (stereo not drawn) | 0.0801 |
| O=C(NCCN1CCN(c2cccc(Cl)c2)CC1)C1CCCN(S(=O)(=O)c2cnc[nH]2)C1 (stereo not drawn) | -0.0551 |
| COc1ccccc1NC(=O)c1nn(C)cc1Br | 0.0965 |
| O=C(CCN1C(=O)C2(OCCO2)c2ccccc21)c1ccccc1 | -0.063 |
| CC1(C)Cc2ccccc2C(=C(C#N)C#N)N1 | -0.285 |
| COc1ccc(CNC(=O)CSCc2ccccc2Cl)cc1 | active: 4.96 |
| S=C1N(c2ccccc2)C(c2cccc3ccccc23)N2CCCN12 (stereo not drawn) | 0.228 |
| c1ccc(-n2nnnc2N2CCOCC2)cc1 | 0.0754 |
| CC1Cc2ccccc2N1C(=O)CSc1nc(N)cc(=O)[nH]1 (stereo not drawn) | -0.205 |
| CC(C)(C)n1nnnc1C(c1ccc(F)cc1)N(Cc1ccc(F)cc1)Cc1ccco1 (stereo not drawn) | -0.0416 |
| COc1cccc(NC(=O)Nc2cccs2)c1 | 1.67 |
| CCn1c(=O)c(C(=O)NCCc2ccccc2)c(O)c2ccccc21 | 0.613 |
| O=C(Cc1ccccc1)NCc1nc2ccccc2[nH]1 | 0.328 |
| CC(C)OC(=O)c1nnc(-c2ccccc2)nc1OC(C)C | -0.673 |
| CC1C(=O)CC(c2ccco2)NC1c1ccco1 (stereo not drawn) | -0.0439 |
| O=C(Cc1ccc(Cl)cc1)NCC(=O)N1CCCC1 | 0.183 |
| CC(C)c1ccc(C2C3=C(CC(C)(C)CC3=O)NC3=C2C(=O)c2ccccc23)cc1 (stereo not drawn) | -0.137 |
| COc1cccc(N(CC(=O)N/N=C(\C)c2cccs2)S(C)(=O)=O)c1 | -0.154 |

| SMILES | z-score |
| --- | --- |
| Cc1ccc(S(=O)(=O)N(CC(=O)NCCC2=CCCCC2)Cc2ccccc2F)cc1 | -0.964 |
| COc1cc(/C=N/NC(N)=S)ccc1OCc1ccc(C)cc1 | 0.0722 |
| CCOc1ccc(NC(=O)CC(c2ccccc2)c2ccc(F)cc2)cc1 (stereo not drawn) | -0.263 |
| Oc1ccc(Nc2nc(Cl)nc(NCc3ccco3)n2)cc1 | -0.585 |
| Cc1cccc(-n2c(N)c(C(=O)N3CCN(C)CC3)sc2=S)c1 | 0.41 |
| O=C(CSc1nc2ccccc2c(=O)n1-c1ccccc1)NCc1ccc2c(c1)OCO2 | -0.78 |
| CCOC(=O)Cn1cc([N+](=O)[O-])c(OC)n1 | -0.119 |
| CC(CC1CC(C)(C)OC1=O)C(=O)Nc1ccc([N+](=O)[O-])cc1 (stereo not drawn) | -0.147 |
| O=C(N/C(=C/c1ccco1)C(=O)N1CCCCC1)c1cccs1 | -0.162 |
| CCCCCNCc1cccc(Br)c1 | -0.393 |
| CCCCNc1nc2ccccc2n1CC(=O)N1CCc2ccccc2C1 | -0.119 |
| C=CCNC(=O)CCCC(=O)NCC=C | -0.125 |
| CCC(=O)N(Cc1ccco1)c1nc(C(=O)Nc2ccc(Cl)cc2)c(C)s1 | 0.394 |
| CCCCCc1nnc(NC(=O)C2CCCO2)s1 (stereo not drawn) | -0.163 |
| O=C1CN(C(=O)CSc2nnc3ccccn23)c2ccccc2N1 | 1.1 |
| CCCCOC(=O)CSc1nnc(N)s1 | 0.12 |
| CCCCn1c(SCC(=O)Nc2nnc(C)s2)nnc1-c1ccoc1C | -0.33 |
| Cc1cccc(CNC(=O)c2ccccc2N)c1 | -0.133 |
| CCOc1ccc2c(c1)sc1nc(C(=O)OC)cc(=O)n12 | 0.0959 |
| O=C(OCc1ccccc1)C1=[N+]([O-])OC(C(=O)OCc2ccccc2)C1c1c[nH]c2ccccc12 (stereo not drawn) | -0.556 |
| CCOC(=O)C1=C(c2ccccc2)NC(SCC(N)=O)=C(C#N)C1c1cccnc1 (stereo not drawn) | -0.49 |
| Cc1ccc(S(=O)(=O)N2CCOCC2)cc1C(=O)OCC(=O)NC1CCS(=O)(=O)C1 (stereo not drawn) | -0.0825 |
| O=C(Nc1ccn(Cc2ccccc2F)n1)c1ccc(COc2cccc(Br)c2)cc1 | -0.131 |

| SMILES | z-score |
| --- | --- |
| CCOC(=O)c1ccc(-n2c(C)nc3ccccc3c2=O)cc1 | -0.0432 |
| COc1ccccc1N1CCN(C(=O)C(Sc2ccccc2)c2ccccc2)CC1 (stereo not drawn) | -0.381 |
| O=c1c2cc(Cl)ccc2[nH]c(=S)n1Cc1ccccn1 | 1.21 |
| O=C(/C=C/c1cc([N+](=O)[O-])ccc1OC(F)F)NCc1ccc(Cl)cc1 | -0.096 |
| Cc1ccc(C)c(N2CCN(C(=O)c3ccccc3Br)CC2)c1 | -0.62 |
| Cc1ccc(C(N)=O)cc1S(=O)(=O)Nc1cccc(C)c1C | 0.112 |
| Cc1ccc(C2=NNC(=O)C(c3ccc(Cl)cc3)C2)cc1 (stereo not drawn) | -0.12 |
| COc1cccc(-c2ccc(C#N)c(OC(=O)c3c(Cl)cccc3Cl)n2)c1 | -0.076 |
| Cc1cc(C)c2ccc(C(=O)O)nc2c1O | 0.0642 |
| COn1c(=O)c(=O)n(O)c2ccccc21 | -0.141 |
| Cc1nn(Cc2ccc(F)cc2)c2sc(C(=O)Nc3ccccc3N3CCOCC3)cc12 | -0.168 |
| Cc1ccc(NC(=O)N2CCC(C(=O)Nc3ccc(C)cc3C)CC2)cc1 | 0.557 |
| Cn1ncc(C#N)c1/N=C/N(Cc1ccccc1)Cc1ccccc1 | -0.916 |
| O=C(NC1CCCCC1)c1ccc(Br)o1 | 0.245 |
| CN(C)S(=O)(=O)c1ccc(N2CCOCC2)nc1 | -0.141 |
| CCCCCc1nnc(NC(=O)Cc2cccs2)s1 | active: 12.3 |
| CCCCN(CCCC)c1cn[nH]c(=O)c1Cl | -2.43 |
| O=C1CC(N2CCN(c3ccc(S(=O)(=O)N4CCOCC4)cc3)CC2)C(=O)N1Cc1ccccc1 (stereo not drawn) | -0.165 |
| NS(=O)(=O)c1ccc(Nc2nc(-c3ccc(O)cc3)cs2)cc1 | -0.459 |
| Cc1nc2ccccc2n1/C(=N\S(=O)(=O)c1ccccc1)c1ccccc1 | -0.00784 |
| CCOC(=O)C1(c2ccccc2)NC(c2ccccc2C)C2C(=O)N(c3ccc4c(c3)OCO4)C(=O)C21 (stereo not drawn) | -0.234 |
| COc1cc(C(=O)NC2(C(F)(F)F)NC(=O)N(CCCc3ccccc3)C2=O)cc(OC)c1OC (stereo not drawn) | -0.372 |
| Cc1ccc(-n2nnc3c(=O)n(CC(=O)OCc4ccccc4)cnc32)cc1 | -0.146 |

| SMILES | z-score |
| --- | --- |
| CCOC(=O)C1CCN(C(c2cc3c(C)ccc(C)c3[nH]c2=O)c2nnnn2C2CCCCC2)CC1 (stereo not drawn) | -0.505 |
| COC(=O)[C@@H](NC(=O)NCc1ccccc1Cl)C(C)C | 0.128 |
| Brc1ccccc1-c1nnc(SCc2nc3ccccc3s2)o1 | -0.488 |
| NCc1cccc(-n2cccn2)c1 | -0.158 |
| COc1c(C)cccc1C(=O)Nc1cc(-c2nn3c(C)nnc3s2)ccc1C | -1.6 |
| O=C(Nc1ccc(N2CCN(C(=O)c3ccc(Cl)cc3)CC2)cc1)c1cccnc1 | -0.409 |
| O=C(NC(=S)Nc1ccccc1N1CCCCC1)c1ccc(-c2cccc([N+](=O)[O-])c2)o1 | 0.681 |
| CCCc1[nH]nc2c1C(c1cccc(OC(=O)c3ccco3)c1)C(C#N)=C(N)O2 (stereo not drawn) | -0.145 |
| OC1CCN(c2c3c(nc4cc(-c5ccc(Cl)cc5)nn24)CCC3)CC1 | -0.738 |
| CC(=O)N1N=C(c2ccccc2)OC1(C)CC(=O)Nc1ccccc1 (stereo not drawn) | -0.0519 |
| O=C(NCc1ccccc1)c1ccc(CS(=O)(=O)c2ccccc2)o1 | -0.0853 |
| O=C(O)CCCNS(=O)(=O)c1ccc2c(c1)OCCCO2 | -0.11 |
| CCn1cc(C(=O)NC2CCCCC2)c(=O)c2ccc(C)nc21 | -0.484 |
| COc1ccc(-c2nc3c(c(=O)c4ccccc4n3C)c(=O)n2Cc2ccccc2)cc1 | -0.433 |
| Cc1cccc2cc(CN(Cc3nnnn3C3CCCC3)C3CCCCC3)c(=O)[nH]c12 | -0.825 |
| N#CCCn1c(SCC(=O)c2c[nH]c3ccccc23)nc2ccccc21 | -0.698 |
| Cc1nnc(C)n1/N=C/c1ccc(-c2ccccc2)cc1 | -0.447 |
| OCCN1CCN(Cc2cc(Cl)c3cccnc3c2O)CC1 | 0.225 |
| Cc1cc(C(=O)c2ccccc2)c(NC(=O)CN2CCOCC2)s1 | -0.12 |
| CC(=O)N(C)c1ccc(NC(=O)c2ccco2)cc1 | 0.411 |
| CC1(C)CC(=O)C2=C(C1)N(c1ccccc1)C(=O)C2(O)C(F)(F)F (stereo not drawn) | -0.202 |
| Cc1ccc(-c2cc(C(F)F)nc(NCC3CCCO3)n2)cc1 (stereo not drawn) | -0.621 |
| CCn1ccc(C(=O)NC2C(=O)N3C(C(=O)O)=C(C)CSC23)n1 (stereo not drawn) | 0.567 |

| SMILES | z-score |
| --- | --- |
| Cc1cc(OCc2cc3c(cc2Cl)OCO3)c2c(C)cc(=O)oc2c1 | -0.0238 |
| COc1ccc(CCN2CN(S(=O)(=O)c3ccccc3)c3nc4ccccc4nc32)cc1 | -0.221 |
| CCc1ccc(CN/C=C/C(=O)c2ccc(Br)cc2)cc1 | -0.162 |
| O=C(O)c1cccc(Cn2cccn2)c1 | -0.187 |
| Cc1ccc(-n2nnnc2SCc2nnc(-c3ccccc3Br)o2)cc1 | -0.671 |
| Fc1ccccc1NC(=S)N1CCCCC1 | -0.215 |
| COc1ccc(C)cc1S(=O)(=O)N1c2ccccc2CC1C (stereo not drawn) | -0.386 |
| O=C(NNS(=O)(=O)c1ccc(Cl)cc1)C1CCN(Cc2ccccc2)CC1 | -1.27 |
| CCc1nc2c(cnn2-c2ccc(Cl)cc2)c(=O)n1-c1ccc(OC)cc1 | -0.382 |
| CCOCCCNC(=O)c1ccc2c(c1)N(Cc1ccccc1)C(=O)CS2=O (stereo not drawn) | -0.265 |
| CC12CCC(c3nnc(SCC(=O)Nc4cccc5ccccc45)nc31)C2(C)C (stereo not drawn) | -0.149 |
| CCSc1nnc(NC(=O)c2cc(C)nc3ccccc23)s1 | 0.31 |
| Cc1cccc(-c2c3c(=O)n(C)c(=O)n(C)c3c3cccnn23)c1 | -0.457 |
| Cc1ccc(-c2cc(C(=O)Nc3cccnc3)c3ccccc3n2)o1 | -0.197 |
| Cc1ccc(CN2CCN(/N=C/c3cc(Br)cc(Br)c3O)CC2)c(C)c1 | 0.641 |
| CC(NC(=O)C1(C)CC1(Br)Br)C(C)(C)C (stereo not drawn) | -0.211 |
| O=C(CCNC(=O)c1ccccc1Cl)Nc1ccc(Cl)c(C(F)(F)F)c1 | -0.134 |
| CCOC(=O)N1CCN(C(=O)CNC(=O)Cc2ccc(Cl)cc2)CC1 | -0.245 |
| CCCN(CC1CC1)c1nc(N)c(C#N)c(CC#N)c1C#N | -0.607 |
| CCOC(=O)CC1NC(=O)c2ccccc21 (stereo not drawn) | 0.524 |
| CCOc1ccccc1N1CCN(C(=O)c2ccc3[nH]c4c(c3c2)CCCC4)CC1 | -0.284 |
